This passage reports enrichment ratio results from a collection of fitness landscapes (doi:10.1126/science.1257360).

B1: PhoQ; a variant is named by its letters at X, in order, P23837 (parent)
chain: MKKLLRLFFPLSLRVRFLLATAAVVLVLSLAYGMVALIGYSVSFDKTTFRLLRGESNLFYTLAKWENNKLHVELPENIDKQSPTMTLIYDENGQLLWAQRDVPWLMKMIQPDWLKSNGFHEIEADVNDTSLLLSGDHSIQQQLQEVREDDDDAEMTHSVAVNVYPATSRMPKLTIVVVDTIPVELKSSYMVWSWFIYVLSANLLLVIPLLWVAAWWSLRPIEALAKEVRELEEHNRELLNPATTRELTSLVRNLNRLLKSERERYDKYRTTLTDLTHSLKTPLXXLQXXLRSLRSEKMSVSDAEPVMLEQISRISQQIGYYLHRASMRGGTLLSRELHPVAPLLDNLTSALNKVYQRKGVNISLDISPEISFVGEQNDFVEVMGNVLDNACKYCLEFVEISARQTDEHLYIVVEDDGPGIPLSKREVIFDRGQRVDTLRPGQGVGLAVAREITEQYEGKIVAGESMLGGARMEVIFGRQHSAPKDE

Some of the results follow.

In this experiment the parent is B1. The experiment can be described thus: enrichment ratio after two sorts for PhoP signalling (ratio (wild type AVST 3.29)); higher = more functional. The following applies: with PhoP (E. coli).
As to PTDS, the enrichment ratio is at most 0.25.

Turning to TKDD, the enrichment ratio is at most 0.25.

Regarding CLRY, the enrichment ratio is at most 0.25.

As for GKSD, the enrichment ratio is at most 0.25.

With NRCG, the enrichment ratio was at most 0.25.

On to VAWH, for which the enrichment ratio was at most 0.25.

As for GYNK, the enrichment ratio was at most 0.25.

As to RHSH, the enrichment ratio was at most 0.25.

With MSSN, the enrichment ratio was at most 0.25.

Regarding MPGC, the enrichment ratio was at most 0.25.

For AGNK, the enrichment ratio is at most 0.25.

On to LSIQ, for which the enrichment ratio is at most 0.25.

As for HLHR, the enrichment ratio is at most 0.25.

Turning to FWKS, the enrichment ratio was at most 0.25.

As for MSTC, the enrichment ratio was 1.5.

Regarding SSLQ, the enrichment ratio came out at 14.5.

With NMRT, the enrichment ratio is at most 0.25.

On to HKGE, for which the enrichment ratio was at most 0.25.

Take TTRP: the enrichment ratio is at most 0.25.

Regarding KVRG, the enrichment ratio is at most 0.25.

PPND: the enrichment ratio is at most 0.25.

Turning to FSTY, the enrichment ratio is at most 0.25.

On to QIVM, for which the enrichment ratio was at most 0.25.

MFAS: the enrichment ratio was at most 0.25.

WKPQ: the enrichment ratio is at most 0.25.

Take TDDM: the enrichment ratio is at most 0.25.

With NFKC, the enrichment ratio is at most 0.25.

With SLPA, the enrichment ratio is at most 0.25.

In the case of FKDW, the enrichment ratio was at most 0.25.

In the case of DKCY, the enrichment ratio is at most 0.25.

On to QSTE, for which the enrichment ratio is at most 0.25.

For the variant RAVI, the enrichment ratio was at most 0.25.

As for GFDW, the enrichment ratio is at most 0.25.

Take MYLE: the enrichment ratio is at most 0.25.

For VLKY, the enrichment ratio was at most 0.25.

VDFT: the enrichment ratio was at most 0.25.

For QPCV, the enrichment ratio is at most 0.25.

For NERQ, the enrichment ratio is at most 0.25.

Regarding ISRK, the enrichment ratio is at most 0.25.

Take TNVT: the enrichment ratio is at most 0.25.

As for QCSG, the enrichment ratio came out at 32.

With HIPF, the enrichment ratio is at most 0.25.

Turning to DMHI, the enrichment ratio was at most 0.25.

As for HIRV, the enrichment ratio is at most 0.25.

Consider VHWL, for which the enrichment ratio was at most 0.25.

With TCRK, the enrichment ratio was at most 0.25.

For DDQG, the enrichment ratio was at most 0.25.

For the variant FFLP, the enrichment ratio is at most 0.25.

Regarding HASM, the enrichment ratio was 1.23.

Take KFTD: the enrichment ratio was at most 0.25.

In the case of MSDD, the enrichment ratio was at most 0.25.

TCPM: the enrichment ratio is at most 0.25.

As for EIAK, the enrichment ratio was at most 0.25.

Take MKTK: the enrichment ratio is at most 0.25.

Turning to DSCG, the enrichment ratio was at most 0.25.

Regarding VRMW, the enrichment ratio is at most 0.25.

On to TCEV, for which the enrichment ratio came to 2.64.

TPHD: the enrichment ratio was at most 0.25.

Regarding MRSS, the enrichment ratio is at most 0.25.

YCSV: the enrichment ratio turned out to be 1.26.

Take PKGF: the enrichment ratio is at most 0.25.

With WRCG, the enrichment ratio is at most 0.25.

For DGCW, the enrichment ratio is at most 0.25.

HNSP: the enrichment ratio was at most 0.25.

As for YSHA, the enrichment ratio was at most 0.25.

For the variant MDML, the enrichment ratio was at most 0.25.

Regarding HKKN, the enrichment ratio is at most 0.25.

Consider VHHR, for which the enrichment ratio was at most 0.25.

As for NIDW, the enrichment ratio is at most 0.25.

As to HMVE, the enrichment ratio was at most 0.25.

Take ESHT: the enrichment ratio is at most 0.25.

Take SQYV: the enrichment ratio is at most 0.25.

In the case of LEYA, the enrichment ratio is at most 0.25.

YLSG: the enrichment ratio was found to be 0.373.

Take GHVE: the enrichment ratio is at most 0.25.

Regarding GRTA, the enrichment ratio was at most 0.25.

With QNGC, the enrichment ratio was determined as 2.23.

In the case of SRGL, the enrichment ratio was at most 0.25.

For the variant GPQF, the enrichment ratio is at most 0.25.

For VWAN, the enrichment ratio was at most 0.25.

Regarding QYHC, the enrichment ratio is at most 0.25.

In the case of AIMT, the enrichment ratio came to 22.8.

On to VWGE, for which the enrichment ratio was at most 0.25.

As to QVIM, the enrichment ratio is at most 0.25.

On to KAYR, for which the enrichment ratio was at most 0.25.

Turning to HFMI, the enrichment ratio is at most 0.25.

For SIWA, the enrichment ratio was at most 0.25.

Turning to IPYK, the enrichment ratio is at most 0.25.

For AYID, the enrichment ratio was at most 0.25.

Turning to YPAE, the enrichment ratio is at most 0.25.

Take YIAR: the enrichment ratio was at most 0.25.

In the case of SGIE, the enrichment ratio was at most 0.25.

In the case of AHDN, the enrichment ratio was at most 0.25.

For the variant RSDE, the enrichment ratio is at most 0.25.

With WARK, the enrichment ratio is at most 0.25.

Consider IEGG, for which the enrichment ratio was at most 0.25.

As to VPWK, the enrichment ratio is at most 0.25.

As to KEET, the enrichment ratio was at most 0.25.

Turning to EILC, the enrichment ratio was at most 0.25.

As for GGWQ, the enrichment ratio was at most 0.25.

As to SEQC, the enrichment ratio was found to be 4.73.

For MQIY, the enrichment ratio is at most 0.25.

As to LVMM, the enrichment ratio was at most 0.25.

Take NLYF: the enrichment ratio was at most 0.25.

Regarding PIFK, the enrichment ratio is at most 0.25.

Regarding WRES, the enrichment ratio was at most 0.25.

ANIN: the enrichment ratio was at most 0.25.

With IVYV, the enrichment ratio is at most 0.25.

Consider ASIF, for which the enrichment ratio came to 9.44.

Take EACR: the enrichment ratio was at most 0.25.

With GQFH, the enrichment ratio was at most 0.25.

ICPN: the enrichment ratio is 0.417.

Turning to GNRP, the enrichment ratio was at most 0.25.

NRYN: the enrichment ratio is at most 0.25.

On to GWNY, for which the enrichment ratio is at most 0.25.

Take ENPP: the enrichment ratio is at most 0.25.

As for NCHK, the enrichment ratio was at most 0.25.

For AYQR, the enrichment ratio was at most 0.25.

For WKGG, the enrichment ratio was at most 0.25.

Regarding KTCR, the enrichment ratio was at most 0.25.

Take TYCN: the enrichment ratio worked out at 3.13.

On to IDNM, for which the enrichment ratio is at most 0.25.

As for IFVN, the enrichment ratio was at most 0.25.

In the case of GHMM, the enrichment ratio is at most 0.25.

For the variant PGHD, the enrichment ratio was at most 0.25.

As to WSIA, the enrichment ratio was at most 0.25.

Consider QTPW, for which the enrichment ratio is at most 0.25.

On to YRLY, for which the enrichment ratio was at most 0.25.

On to FFEC, for which the enrichment ratio is at most 0.25.

For WFSP, the enrichment ratio was at most 0.25.

For the variant WKGC, the enrichment ratio was at most 0.25.

Consider YRYN, for which the enrichment ratio was at most 0.25.

Take HEYC: the enrichment ratio is at most 0.25.

DWSG: the enrichment ratio was at most 0.25.

As for KQVG, the enrichment ratio is at most 0.25.

WGVI: the enrichment ratio is at most 0.25.

Consider MGEF, for which the enrichment ratio is at most 0.25.

With EMTM, the enrichment ratio is at most 0.25.

Regarding FQGG, the enrichment ratio was at most 0.25.

Regarding NKTY, the enrichment ratio was at most 0.25.

RPKC: the enrichment ratio was at most 0.25.

Regarding NVLN, the enrichment ratio is at most 0.25.

On to MDLC, for which the enrichment ratio is at most 0.25.

On to YVCK, for which the enrichment ratio is at most 0.25.

As for KYQM, the enrichment ratio was at most 0.25.

On to NHYC, for which the enrichment ratio is at most 0.25.

With NTSV, the enrichment ratio is at most 0.25.

Take RPCK: the enrichment ratio was at most 0.25.

In the case of DWYT, the enrichment ratio was at most 0.25.

Take SNFD: the enrichment ratio was at most 0.25.

For IITP, the enrichment ratio is at most 0.25.

As for KKVA, the enrichment ratio is at most 0.25.

Take IMFW: the enrichment ratio is at most 0.25.
